Reference: the RNAGym collection of RNA variant scans (doi:10.7554/elife.90254)
Read counts are not given, so values of variants with three or more changes are uncertain.

B1: LINE1-full (parent)
chain: UACGUAGGUGGUUUUCCCCUGAUAGUGCUAAGGGGGCCUGGAAGUUUGGACUGGGCAGAGCUCAACACAGCGUGGCAAAGUGGCUGUGGCUAGACUGCCUCUCUGGAUUCCUCGUCACUCAGCAGGGCAUCUCUGAGAGAAAUGCC

Variants of: B1
Assay: self-cleavage, relative activity (ratio to wild type); higher = more cleavage; in vitro, sequencing; the parent is a self-cleaving ribozyme

With UGCGUAGGUGGCUUUCCCCUGAUAGUGCUAAGGGGGCCUGGAAGUUUGGACUGGGCAGAGCUCAACACAGCGUGGCAAAGUGGCUGUGGCUAGACUGCCUCUCAGGAUUCCUCGUCACUCAGCAGGGCAUCUCUGAGAGAAGUGCC as the variant, how does the self-cleavage read?
Its self-cleavage is 0.99.

Which self-cleavage does the source give for UACGUAGGUGGUUUUCCCCUGAUAGUGCUAAGGGGGCUUGGAAGUUAGGACUGGGCAGAGCUCAACUCAGCGUGGCAAAGUGGCUGUGGCUAGACUGCCUCUCUGGAUUCCUCGUCACUCAGCAGGGCAUCUCUGAGAGAAGUGCC here?
The self-cleavage was 0.07.

Which self-cleavage does the source give for UACGUAGGUGGUUUUCCCCUGAUAGUGCUAAGGGGGCCUGGAAAUUUGGACUGGGCAGAGCUCAACACAGCGUGGCAAAGUAGUUGUGGCUAGACUGCCUCUCUGGAUUCCUCGCCACUCAGCAGGGCAUCUCUGAGAGAAAUGCC here?
The self-cleavage was 0.34.

For UACGUAGAUGGUUUUCCCCUGAUAGUGCUAAGGGGGCCUGGAAGUUUGGACUGGGCAGGGCUCAACACAGCGUGGCGAAGUGGCAGUGGCUAGACUGCCUCUCUGGAUUCCUCGUCACUCAGCAGGGCAUCUCUGAGAGAAAUGCC, which self-cleavage is on record?
Its self-cleavage is 0.2.

For UACGCAGGUGGUUUUCCCCUGAUAGUGCUAAGGGGGCCUGGAAGUUUGGACUGGGCAGAGCUCAACUCAGCGUGGCAAAGUGGCUGUGGCUAGACUGCCUCUCUGGAUUCCUCGUCACUCAGCAGGGCAUCUCUGAGAGAGAUGCC, which self-cleavage is on record?
The self-cleavage was 0.24.

With UACGUAGGUGGUUUUCCCCUGAUAGUGCUAAGGGGGCCUGGAAGUUUGGACUGGGCAGAGCCCAACACAGCGUGGCAUAGUGGCUGUGGCUAGACUGCCUCUCUGGAUUCCUCGCCACUCAGCAGGGCAUCUCUGAGAGAAAUGCC as the variant, how does the self-cleavage read?
Its self-cleavage is 0.02.

Which self-cleavage does the source give for UACGUAGGUGGUUUUCCCCUGAUAGUGCUAAGGGGGCCUGGAAGUCUGGGCUGGGCAGAGCUCAACUCAGCGUGGCAAAGUGGCUGUAGCUAGACUGCCUCUCUGGAUUCCUCGUCACUCAGCAGGGCAUCUCUGAGAGAAAUGCC here?
The self-cleavage was 0.08.

For UACGUAGGUGGUUUUCCCCCGAUAGUGCUAAGGGGGCCUGGAAGUUUGGACUGGGCAGAGCUCAACACAGCGUGGCAAAGUGGCUGCGGCUAGACUGCCUCUCUGGAUUCCUCGUCACUCAGCAGGGCAUCUCUGUGAGAAAUGCC, which self-cleavage is on record?
Its self-cleavage is 0.4.

For UACGAAGGUGGUUUUCCCCUGAUAGUGCUAAGGGGGCCUGGAAGUUUGGACUGGGCAGAGCUCAACACAGCGUGGCAAAGUGGCUGUGGCUAGACUGCCUCUCUGGAUCCCCCGUCACUCAGCAGGGCAUCUCUGAGAGAAAUGCC, which self-cleavage is on record?
Its self-cleavage is 1.38.

For UACGUAGGUGGUUUUCCCCUGACAGUGCUAAGGGGGCCUGGGAGUUUGGUCUGGGCAGAGCUCAACACAGCGUGGCAAAGUGGCUGUGGCUAGACUGCCCCUCUGGAUUCCUCGUCACUCAGCAGGGCAUCUCUGAGAGAAAUGCC, which self-cleavage is on record?
The self-cleavage was 1.88.

With UACGUAGGUGGUUCUCCCCCGAUAGUGCUAAGGGGGCCUGGAAGUUUGGGCUGGGCAGAGCUCAACACAGCGUGGCAAAGUGGCUGUGGCUAGACUGCCUCUCUGGAUUCCUCGUCACUCAGCAGGGCAUCUCUGAGAGAAAUGCC as the variant, how does the self-cleavage read?
Its self-cleavage is 1.84.

For UACGUAGGUGGUUUUCCCCUGAUAGUGCUAAGGGGGCCUGGAAGUUUGGACUGGGCAGAGCUCAUCACAGCGUGACAAAGUGGCUGUGGCUAGACUGCCACUCUGGAUUCCUCGUCACUCAGCAGGGCAUCUCUGAGAGAAAUGCC, which self-cleavage is on record?
Its self-cleavage is 0.05.

For UACGUAGGUGGUUUUCCCCUGAUAGUGCUAAGGGGGCCUGGAAGUUUGGACUGGGCAGAGCUCAACACAGCGAGGCAAAGUGGCUGUGGCUAGACUGCCUCUCUGGAUUCCUCGUCACUCAGCAGGGCACCUCCGAGAGAGAUGCC, which self-cleavage is on record?
Its self-cleavage is 2.04.

With UACGUAGGUGGUUUUCCCCUGAUAGUGCUAAGGGGGCCUGGAAGUUUGGGCUGGGCAGAGCUCAACACAGCGUGGCAAAGUGGCUGUGGUUAGACUGCCUCUCUGGAUUCCUCGUCAUUCAGCAGGGCAUCUCUGCGAGAAAUGCC as the variant, how does the self-cleavage read?
The self-cleavage was 0.03.

With UACGUAGGAGGUUUUCCCCUGAUAGAGCUAAGGGGGCCUGGAAGAUUGGACUGGGCAUAGCUCAACACAGCGUGGCAAAGUGGCUGUGGCUAGACUGCCUCUCUGGAUUCCUCGUCACUCAGCAGGGCAUCCCUGAGAGAAAUGCC as the variant, how does the self-cleavage read?
The self-cleavage was 0.12.

For UACGUAGGUGGUUUUCCCCUGAUAGUGCUGAGGGGGCCUGGAAGUUCGGACUGGGCAGAGCUCAACACAGCGUGGCAAAGUGGCUGUGGCUAGACUGCCUCUCUGGAUUCCUCGUCACUCAGCAGGGCAUCUCUGAGGGAAAUGCC, which self-cleavage is on record?
Its self-cleavage is 1.15.

Which self-cleavage does the source give for UACGUAGGUGGUUUACCCCCGGUAGUGCUAAGGGGGCCCGGAAGUUUGGACUGGGCAGAGCUCAACACAGCGUGGCAAAGUGGCUGUGGCUAGACUGCCUCUCUGGAUUCCUCGUCACUCAGCAGGGCAUCUCUGAGAGAAAUGCC here?
Its self-cleavage is 0.79.

Which self-cleavage does the source give for UACGUAGGUGGUUUUCCCCUGAUAGCGCUAAGGGGGCCUGGAAGAUUGGACUGGGCAGGGCUCAACACAGCGUGGCAAAGUGGCUGUGGCUAGACUGCCUCUCUGGAUUCCUCGUCACUCAGCAGGGCAUCUCUGAGAGGAAUGCC here?
The self-cleavage was 0.04.

For CACGUAGGUGGUUAUCCCCUGAUAGUGCUAAGGGGGCCUGGAAGUUUGGACAGGGCAGAGCUCAACACAGCGUGGCAAAGUGGCUGUGGCUGGACUGCCCCUCUGGAUUCCUCGUCACUCAGCAGGGCAUCUCUGAGAGAAAUGCC, which self-cleavage is on record?
The self-cleavage was 0.

For UACGUAGGUGGUUUUCCCCUGAUAGUGCUAAUGGGGCCUGGAAGUUUGGACUGGGCAGAGCUCAACACAGCGUGGCAAGGUGGCUGUGGCUAGACUGCCUCUCUGGAUUCCUCGUCACCCAGCAGGGCAUCUCUGAGAGAAAUGCC, which self-cleavage is on record?
Its self-cleavage is 1.19.

For UACGUAGGUGGGUUUCCCCUGAUAGUGCUAAGGGGGCCUGGAAGUUUGGUCUGGGCAGAGCUCAACACAGCGUGGCAAAGUGGCUGUGGCUUGACUGCCUCUCUGGAUUCCUCGUCACUCAGCAGGGCAUCUCUGAGAGAAGUGCC, which self-cleavage is on record?
Its self-cleavage is 0.66.

Which self-cleavage does the source give for UACGUAGGUGGUUUUCCCCUGAUAGUGCUAAGGGGGCAUGGAAGUGUGGACUGGGCAGAGCUCAACACAGCGUGGCAAAGUGGCUGUGGCUAGACUGCCUCUCUGGAUUCCUCGUCACUCAGCAGGGCAUCUCUGAGAGAUAUGCC here?
The self-cleavage was 1.11.

For UACGUAGGUGGUUUUCCCCUGAUAGUGCUAAGGGGGCCUGGAAGUUUGGACUGGGCAGAGCUCAACACAGCGCGGCAGAGUGGCCGUGGCUAGACUGCCUCUCUGGAUUCCUCGUCACUCAGCAGGGCAUCUCUGAGAGAAAUGCC, which self-cleavage is on record?
Its self-cleavage is 0.

Which self-cleavage does the source give for UACGUAGGUGGUACUCCCCUGAUAGUGCUAAGGGGGCCUGGAAGUCUGGACUGGGCAGAGCUCAACACAGCGUGGCAAAGUGGCUGUGGCUAGACUGCCUCUCUGGAUUCCUCGUCACUCAGCGGGGCAUCUCUGCGAGGAAUGCC here?
Its self-cleavage is 0.42.

For UACGUAGGUGGUCUUCCCCUGAUAGUGCUAAGGGGGCCUGGAAGUUUGGACUGGGCAGAGCUCAACACAGCGUGGCAAAGUGGCUGUGGCUAGACUGCCUCACUGGACUCCUCGUCACUCUGCAGGGCAUCUCUGAGAGAAAUGCC, which self-cleavage is on record?
Its self-cleavage is 1.23.

Which self-cleavage does the source give for UACGUGGGUGGUUUUCCCCUGAUAGUGCUGAGGGGGCCUGGAUGUUUGGACUGGGCAGAGCUCAACACGGCGUGGCAAAGUGGCUGUGGCUAGACUGCCCCUCUGGAUUCCUCGUCACUCAGCAGGGCAUCUCUGAGAGAAAUGCC here?
Its self-cleavage is 0.

For UACGUAGGUGGUUUUCCCCUGACAGUGCUAAGGGGGCCUGGAAGUUUGGACUGGGCGGAGCUCAACACGGCGUGGCAAAGUGGCUGUGGCUAGACUGCCUCUCUGGAUUCCUCGUCACUCAGCAGGGCAUCUCUGAGAGAAAUGCC, which self-cleavage is on record?
The self-cleavage was 1.02.

For UACGUAGGUGGUUGUCCCCUGAUAGUGCCAAGGGGGCCUGGAAGUUUGGACUGGGCAGGGCUCAACACAGCGUGGCAAAGUGGCUGUGGCUAGACUGCCUCUCUGGAUUCCUCGUCACUCAGCAGGGCAUCUCUGGGAGAAAUGCC, which self-cleavage is on record?
Its self-cleavage is 0.

For UACGUAGGUGGUUUUCCCCUGAUAGUGCUAAGGGGGCCUGGUAGUUUGGACUGGGCAGAGCUCAACACAGCGUGGCAAAGUGGCUGUGGCUAGACUGCCACUCUGGAUUCCUCGUCACUCAGCAGGGCAUCCCUGAGAGAAAUGCC, which self-cleavage is on record?
Its self-cleavage is 0.96.

Which self-cleavage does the source give for UACGUAGGUGGUUUUCCCCUGGUAGUGCUAAGGGGGCCUGGAAGUUUGGACUGGGCAGAGCCCAACACAGCGUGGCAAAGUGGCUGUGGCUAGACUGCCUCUCUGGACUCCUCGUCACUCAGCAGGGCAUCUCUGAGAGAAAUGCC here?
The self-cleavage was 0.1.

Which self-cleavage does the source give for UACGUAGGCGGUUUUCCCCUGAUAGUGCUAAGGGGGCCCGGAAGUUAGGACUGGGCAGAGCUCUACACAGCGUGGCAAAGUGGCUGUGGCUAGACUGCCUCUCUGGAUUCCUCGUCACUCAGCAGGGCAUCUCUGAGAGAAAUGCC here?
Its self-cleavage is 0.37.

For UACGCAGGUGGUUUUCCCCUGAUAGUGCCAAGGGGGCCUGGAAGUUUGGACUGGGCAGAGCUCAACACAGCGUGGCAAAGUGGCUGUGGCUAGACUGCCUCUCUGGAUUCCUCGUCACUCAGCAGGGCAUCUCUGAGAGAAAUACU, which self-cleavage is on record?
Its self-cleavage is 0.53.

Which self-cleavage does the source give for UACGUAGGUGGUCUUCCCCUGAUAGUGCUAAGGUGGCCUGGAAGUUUGGACUGGGCAGAGCUCAACACAGCGUGGCAAAGUGGCUGUGGCUAGACUGCCUCUCUGGGUUCCUCGUCACUCAGCAGGGCAUCUCUGAGAGAAAUGCC here?
Its self-cleavage is 0.84.

For UACGUAGGUGGUUUUCCCCUGAUAGUGCUAAGGGGGCCUGGAAGUUAGGACUGGGCAGAGCUCAACACAGCGUGGCAAAGUGGCUGUGGCUAGACUGCCUCUCUGGAUUCCUCGUCACUCAGCAGGGCAUCUCUGUGAGAAACGCC, which self-cleavage is on record?
Its self-cleavage is 1.29.

Which self-cleavage does the source give for UGCGUAGGUGGUUUUCCCCUGAUAGUGCUAAGGGGGCCUGGAAGUUUGGACUGGGCAGAGCUCAACACAGCGUGGCAAAGAGGCUGUGGCUAGACUGCCUCUCUGGAUUCCUCGUCACACAGCAGGGCAUCUCUGAGAGAAAUGCC here?
Its self-cleavage is 1.4.

Which self-cleavage does the source give for UACGUAGGUGGUUUUCCCCUGAUAGUGCUAAGGGGGCCUGGACGUCUGGACUGGGCAGAGCUCAACACAGCGUGGCAAAGUGGCUAUGGCUAGACUGCCUCUCCGGAUUCCUCGUCACUCAGCAGGGCAUCUCUGAGAGAAGUGCC here?
The self-cleavage was 0.22.

For UACGUAGGUGGUUUUCCUCUGAUAGUGCUAAGUGGGCCUGGAAGUUUGGACUGGGCAGAGCUCAACACAGCGUGGCAAAGUGGCUGUGGCUAGACUGCCUCUCUGGAUUCCUCGUCACUCAGCAGGGCAUCUCUGGGAGAAGUGCC, which self-cleavage is on record?
Its self-cleavage is 1.19.

For UACGUAGGUGGUUUUCCCCUGAUAGUGCUAAGGGGGCCUGGAAGUUUGGACUGGGCAGAGCUCAACACAGCGUGGCGAAGCGGCUGUGGCUAGACUGCCUCUCUGGAUUCCUCGUCUCUCAGCAGGGCAUCUCUGAGAGAAAUGCC, which self-cleavage is on record?
Its self-cleavage is 2.38.

With UACGUAGGUGGUUUUCCCCUGAUACUGCUAAGGGGGCCUGGAAGUUUGGACUGGGCAGAGCUCAACACAGCGUGGCAAGGUGGCCGUGGCUAGACUGCCUCUCUGGAUUCCUCGUCACUCAGCAGGGCAUCUCUGAGAGAAGUGCC as the variant, how does the self-cleavage read?
The self-cleavage was 0.
